Experimental findings from ChEMBL document CHEMBL4888484, “Replenishing the malaria drug discovery pipeline: Screening and hit evaluation of the MMV Hit Generation Library 1 (HGL1) against asexual blood stage Plasmodium falciparum ,using a nano luciferase reporter read-out” (2022) are described below.

The structures appear in SMILES notation. Among all 150,000 compounds or so, about 540 (0.36%) showed an effect of 50% or more. The list shows a part of the results.

A word on the % Inhibition: it is the change of the read-out against control, counted positive when it falls.

The test system of this assay is Plasmodium falciparum. Kind of assay: Primary screen in NF54 nanoGlo assay, in single point, at 2uM, 72h; a lower Z score goes with more inhibition. Conditions: timepoint 72 hour. The class given is functional, Erythrocyte.
For `CC[C@H](NC(=O)COC)C(C)(C)c1ccccc1`, the “% Inhibition” value was -5% and the Z score is 0.65.

Consider `Cc1ccc(C(=O)Nc2cc(C3CCCCC3)[nH]n2)c(=O)[nH]1`, for which the “% Inhibition” value was 0% and the Z score is listed as -0.02.

On to `O=C(N[C@H]1C[C@@H]2C[C@H]1N(S(=O)(=O)c1cccnc1)C2)c1cccs1`, for which the “% Inhibition” value is -11% and the Z score is given as 1.76.

Regarding `CCN(Cc1nc2c(s1)C[C@@H](C)CC2)C(=O)c1cccnc1OC`, the “% Inhibition” value is recorded as -2% and the Z score was 0.22.

Take `CC(C(=O)N1CCOC(Cn2cccn2)C1)n1cccn1` (stereo unspecified): the “% Inhibition” value is given as -5% and the Z score was 0.81.

As for `Cc1cc(C)nc(CN(C)C(=O)c2cnc(O)c(Cl)c2)c1`, the “% Inhibition” value was -6% and the Z score stood at 0.83.

`Cc1cc(C(=O)N2CC[C@H]3[C@H](CCC(=O)N3CCCn3ccnc3)C2)no1`: the “% Inhibition” value was -10% and the Z score is listed as 1.18.

Consider `Cc1cc(C)nc(-n2nc(-c3ccc(F)cc3)cc2O)n1`, for which the “% Inhibition” value is -1% and the Z score came out at 0.13.

Turning to `COC(=O)c1cc2c(-c3ccccc3)nn(-c3ccccc3)c2[nH]1`, the “% Inhibition” value stood at 7% and the Z score is reported as -0.68.

With `Nc1ccc2c(c1)CN(C1CCCC1)C2`, the “% Inhibition” value is -7% and the Z score is on record as 1.01.

As for `N#CCCN(CCC#N)Cc1cc2cc(F)ccc2o1`, the “% Inhibition” value was -9% and the Z score is listed as 1.03.

As to `CC1CCCCC1NC(=O)CCNC(=O)N1CC(=O)Nc2ccccc21` (stereo unspecified), the “% Inhibition” value came to 8% and the Z score is given as -0.97.

For `O=C(CC1(C(=O)Nc2cccc(S(=O)(=O)N3CCOCC3)c2)CCCCC1)NC1CC1`, the “% Inhibition” value was -46% and the Z score is listed as 5.39.

Turning to `CCN(CC)c1nc2nonc2nc1Nc1ccccc1F`, the “% Inhibition” value worked out at 30% and the Z score is -3.89.

Regarding `COc1cc(OC)cc(N2CC[C@H](N(C)Cc3ccnn3C)C2=O)c1`, the “% Inhibition” value is 8% and the Z score is recorded as -1.21.

In the case of `CC(C)(C)c1n[nH]c([C@@H]2CN(Cc3noc(C4CC4)n3)CCO2)n1`, the “% Inhibition” value worked out at 30% and the Z score was -3.43.

Turning to `CCOc1ccc(N(C)C[C@H](O)COC)cc1`, the “% Inhibition” value stood at 6% and the Z score is recorded as -0.74.

Turning to `O=C(COCc1ccccc1)N1CC[C@H](OCC2CC2)C1`, the “% Inhibition” value is -10% and the Z score was found to be 1.59.

Consider `CCCNC(=O)c1ccc(Cl)c(N)c1`, for which the “% Inhibition” value is -6% and the Z score is given as 0.8.

On to `Cc1ccccc1-c1nnc2n1C(C)(C)Cc1c-2ccc2ccccc12`, for which the “% Inhibition” value was determined as 4% and the Z score is listed as -0.62.

As for `CCn1c(-c2cc(NC(=O)Cc3cccc(OC)c3)[nH]n2)cc2ccccc21`, the “% Inhibition” value is reported as -6% and the Z score turned out to be 0.83.

In the case of `O=C(C[C@@H]1NC(=O)N(CCc2c[nH]c3ccccc23)C1=O)NC[C@@H]1CCCN2CCCC[C@H]12`, the “% Inhibition” value is recorded as -9% and the Z score is 1.2.

Take `Cc1cc(C(=O)N2C[C@@H](COCC3CC3)[C@H](c3ccccn3)C2)[nH]n1`: the “% Inhibition” value is given as -3% and the Z score is 0.62.

As for `O=C(NC1CC1)c1cccc(NC(=O)N2CC3(CCCCC3)C2)c1`, the “% Inhibition” value turned out to be 2% and the Z score is -0.38.

For the compound `Cc1cc(C)c(CNC(=O)N2CCN(CCC(C)(C)C)CC2)c(=O)[nH]1`, the “% Inhibition” value is -3% and the Z score is listed as 0.41.

In the case of `CN(Cc1csc(-c2ccccc2)n1)C1CCN(S(C)(=O)=O)CC1`, the “% Inhibition” value was found to be 6% and the Z score is -1.15.

Consider `COc1ccccc1C1(CNc2ccc3nnnn3n2)CCOCC1`, for which the “% Inhibition” value is on record as -13% and the Z score worked out at 1.19.

As for `C[C@@H](c1ccco1)N(C)C(=O)[C@H]1CC[C@H](C(=O)O)CC1`, the “% Inhibition” value is listed as -11% and the Z score amounted to 1.21.

As for `C[C@H](NC(=O)C(c1ccccc1)c1ccccc1)c1n[nH]c(=O)[nH]1`, the “% Inhibition” value was -3% and the Z score was found to be 0.54.

For the compound `CCn1nc(C)c(C(=O)N2CC[C@](C)(O)[C@H](CC(C)C)C2)c1C`, the “% Inhibition” value was -11% and the Z score turned out to be 1.99.

For the compound `Cc1ncccc1OC[C@@H](O)COC(C)C`, the “% Inhibition” value is given as -10% and the Z score stood at 1.52.

As for `O=C(c1cnc(CN2CCCC2)s1)N1CCc2[nH]cnc2C1`, the “% Inhibition” value is 1% and the Z score was -0.14.

Regarding `O=C(NCc1cnn2c1CCCC2)c1ccccc1Cl`, the “% Inhibition” value was found to be 7% and the Z score was -1.1.

`O=C(C1=CCCC1)N1CCC[C@H](c2[nH]ncc2-c2ccccc2)C1`: the “% Inhibition” value is 0% and the Z score was 0.07.

In the case of `c1csc(-c2cn(CCOC3CCC3)nn2)c1`, the “% Inhibition” value is -2% and the Z score is recorded as 0.32.

Regarding `c1coc(-c2noc(CN3CC[C@@]4(CCCOC4)C3)n2)c1`, the “% Inhibition” value is reported as -8% and the Z score was found to be 0.96.

For `O=C(c1cccc2cn[nH]c12)N1CCCC1`, the “% Inhibition” value is 0% and the Z score turned out to be 0.05.

On to `CN(C)[C@@](C)(C(=O)NCc1cncn1C)c1ccccc1`, for which the “% Inhibition” value was -2% and the Z score is listed as 0.24.

Consider `O=C(NCc1cccc(F)c1)c1ccc(-c2cccs2)nc1`, for which the “% Inhibition” value was -25% and the Z score worked out at 4.82.

`Cc1cccc(N2CCN(C(=O)c3nc4cccnc4n(CC(C)C)c3=O)CC2)c1`: the “% Inhibition” value is reported as 1% and the Z score is -0.09.

Regarding `O=C(NCc1nccs1)c1cc(Br)cnc1C1CC1`, the “% Inhibition” value was -8% and the Z score is listed as 1.18.

For `CC(O)CC1CCCN1C(=O)C1CCN(c2ccccc2F)C1` (stereo unspecified), the “% Inhibition” value is recorded as -4% and the Z score is given as 0.94.

As for `CC(C)(C)NS(=O)(=O)c1cc(C(=O)N2CCCCCC2)cs1`, the “% Inhibition” value is reported as -6% and the Z score is given as 0.58.
